Test results published in PubChem BioAssay AID1347071 (National Center for Advancing Translational Sciences (NCATS), 2019).
Among all 410,000 compounds or so, about 260 (0.063%) were called active. Inconclusive means that the source gave no clear call. Such entries were picked first, then a sample of the others. Calls come from the whole dose curve; as a rule, active = well fitted activation curve with a large enough effect; inconclusive = small, poorly fitted or top-dose-only effect; inactive = no such curve, though single readings can be large or run the other way. No potency is given beside an inconclusive call; the fits are too rough.

Test: qHTS for compounds that reverse cellular toxicity of Amyloid beta (A-beta) peptide in yeast: Primary Screen; note: nearly all actives have a fitted effect of over 55% in size
Conditions: yeast expressing A-beta42, growth rescue, OD600, 48 h; growth rescue: at 46.1 µM (top of the series), 0% DMSO, 100% iron-clioquinol control
In short: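 Yeast growth medium received pinned compounds, then yeast cells expressing toxic A-beta were added; plates incubated at 30 C for 48 hr. Growth read as absorbance at 600 nm, normalized to DMSO and equimolar FeCl3 plus clioquinol controls.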
Potency is the fitted concentration of half-maximal effect; tags give direction and shape of the fitted curve.

SMILES	Potency	growth rescue
COC(=O)c1ccc(-n2c(CCC(=O)O)ccc2-c2ccc(C)cc2)cc1	inactive	–
CCOC(=O)C1(Cc2ccccc2C)CCCN(S(=O)(=O)c2cccnc2)C1 (stereo not drawn)	inconclusive [activator, partial curve]	–
O=C(COc1ccc(Cl)cc1Cl)NC(=O)N1CCOCC1	inconclusive [activator, single point]	–
CCOC(=O)c1cnc(-n2nc(C)cc2C)nc1NNc1ncc(-c2ccccc2)cn1	inconclusive [activator, single point]	–
Cc1nn(-c2ccc(F)cc2)c(-n2cccc2)c1C(=O)N1CCN(c2ccccc2)CC1	–	inactive: -18.4%
COc1cc(/C=N/NC(=O)COc2ccc(C)cc2)ccc1OC(=O)c1cccs1	inconclusive [activator, full curve]	–
COc1ccc(CC(=O)OCC(=O)NC(=O)NC23CC4CC(CC(C4)C2)C3)cc1	inconclusive [activator, partial curve, poor fit]	–
Cc1ccccc1CNC(=O)C1CCN(S(=O)(=O)Cc2ccccc2)CC1	–	inactive: -1.6%
Cc1cc(-c2csc(Nc3ccccn3)n2)ccc1F	inconclusive [activator, partial curve, poor fit]	–
CCn1c(=O)n(-c2ccc(F)cc2)c(=O)c2sc3ccccc3c21	–	inactive: -8.58%
Cc1cccc(C)c1Nc1nnc(SCC(=O)c2ccc(Br)s2)s1	inconclusive [activator, partial curve, poor fit]	–
Cc1nn(CC(=O)NCc2ccc(N(C)C)cc2)c(=O)c2c(C)n(-c3ccc(Cl)cc3)nc12	–	inactive: -5.32%
COc1ccc(Cl)cc1NC(=O)Cn1c(=O)n(Cc2cccs2)c(=O)c2cccnc21	–	inactive: 2.13%
Cc1ccccc1N=C1Nc2ccccc2CS1	inconclusive [activator, single point]	–
COc1ccc(OC)c(-c2csc(NC(=O)C3COc4ccccc4O3)n2)c1 (stereo not drawn)	inconclusive [activator, partial curve, poor fit]	–
COc1ccc(CNC(=S)NC2CCCCC2)cc1	inconclusive [activator, partial curve, poor fit]	–
Cc1cc([N+](=O)[O-])ccc1NCc1ccco1	inconclusive [activator, full curve, poor fit]	–
c1ccc(CSc2nnc(-c3sccc3-n3cccc3)o2)cc1	inconclusive [activator, partial curve, poor fit]	–
Cc1ccc(C2(c3noc(CN(C)Cc4ccccn4)n3)CCCC2)cc1	inconclusive [activator, single point]	–
CCCCC1(C)OC(=O)C(=Cc2ccc(-c3ccc(Cl)c(C(=O)O)c3)o2)C(=O)O1 (stereo not drawn)	inconclusive [activator, partial curve, poor fit]	–
CCOC(=O)c1ccc(NC(=S)N2CCCC(C)C2)cc1 (stereo not drawn)	inconclusive [activator, single point]	–
CC(C)c1nc2sc3c(=S)nc[nH]c3c2c2c1CCC2	–	inactive: 24.4%
Clc1cccc(/C=N\Nc2nccs2)c1	inconclusive [activator, partial curve, poor fit]	–

SMILES	Potency	growth rescue
CCn1cc(C(=O)NCc2ccco2)c(=O)c2cc(S(=O)(=O)N3CCc4ccccc4C3)ccc21	–	inactive: 13.3%
CCCCN(CC)CCCNC(=O)c1cc2c(=O)[nH]c3ccccc3c2n1C	–	inactive: -2.08%
CCCOc1ccc(CNC(=S)NCc2ccc(OC(C)C)cc2)cc1	inconclusive [activator, single point]	–
COc1ccccc1/C=N/NC(=O)c1ccc(Br)cc1	–	inactive: -0.213%
Cc1ccc(-c2csc3ncnc(-n4cnc5ccccc54)c23)cc1	–	inactive: -45.1%
Cc1cc2c(c(Sc3ccccc3)n1)C(=O)OC2	–	inactive: 2.79%
COc1cccc(-c2nc(N3CCC(C)CC3)c3ccccc3n2)c1O	–	inactive: -13.8%
Cc1ccc(Cc2cnc(NC(=O)c3cccs3)s2)cc1	inconclusive [activator, full curve]	–
CNC(=S)N/N=C(\C)c1ccc(Cl)s1	inconclusive [activator, partial curve, poor fit]	–
Cc1ccc(C)c(N2CCN(S(=O)(=O)c3ccc4c(c3)NC(=O)CS4)CC2)c1	inconclusive [activator, partial curve, poor fit]	–
Cc1ccc(N2CCN(C(=O)c3cnc(N4CCCCC4)c4ccccc34)CC2)c(C)c1	inconclusive [activator, partial curve, poor fit]	–
COc1ccc(S(=O)(=O)Nc2ccc(S(=O)(=O)Nc3ccc(F)cc3)cc2)cc1C	inconclusive [activator, full curve, poor fit]	–
CCn1c(NC(=O)/C=C/c2ccc(F)cc2)nc2ccccc21	inconclusive [activator, single point]	–
OC(c1ccc(-c2ccccc2)cc1)c1ncc(-c2ccc(C(F)(F)F)cc2)[nH]1 (stereo not drawn)	inconclusive [activator, partial curve, poor fit]	–
CCOC(=O)C1=C(C)C(c2cccc(Oc3ccccc3)c2)NC(=S)N1 (stereo not drawn)	inconclusive [activator, single point]	–
O=C1C2C(c3ccccc3)C=CC(c3ccccc3)C2C(=O)N1CCO (stereo not drawn)	–	inactive: 3.84%
CN(C1(C)CCS(=O)(=O)C1)S(=O)(=O)c1ccc2ccccc2c1 (stereo not drawn)	inconclusive [activator, single point]	–
O=C(Nc1ccc(F)cc1)N1CCc2ccccc2C1	inconclusive [activator, single point]	–
Cc1ccc(S(=O)(=O)CC(=O)Nc2nnc(C)s2)cc1	inconclusive [activator, single point]	–
S=C(Nc1ccccc1)Nc1ccc2ccccc2c1	inconclusive [activator, single point]	–
Cc1ccc(CC(=O)Nc2ccc(F)c([N+](=O)[O-])c2)cc1C	inconclusive [activator, single point]	–
COC(C[C@@H](O)C[C@@H](O)COCc1ccccc1)OC	inconclusive [activator, full curve]	–
COc1ccc(NC(=S)NCc2ccc3c(c2)OCO3)cc1	inconclusive [activator, single point]	–

SMILES	Potency	growth rescue
COc1ccc(Cc2nnc(NC(=O)Cc3cccs3)s2)cc1OC	–	inactive: 3.43%
Fc1ccccc1C1c2cccn2CCN1C(=S)Nc1ccc(Br)cc1 (stereo not drawn)	inconclusive [activator, partial curve, poor fit]	–
Cc1cccc(C(=O)OC(C)C(=O)NC(=O)NC2CCCCC2)c1O (stereo not drawn)	inconclusive [activator, single point]	–
CCCCN1CNC(=S)N(CCc2ccccc2)C1	inconclusive [activator, single point]	–
Cc1ccc(C)c(C(C)NC(=S)NCc2ccc(F)cc2)c1 (stereo not drawn)	inconclusive [activator, partial curve, poor fit]	–
CCc1ccccc1NC(=O)CN1C(=O)COc2ccc(S(=O)(=O)N3CCCCCC3)cc21	–	inactive: 0.65%
CC(=O)c1c(C)[nH]c(C(=O)CSc2nnc(-c3ccccc3)n2Cc2ccc3c(c2)OCO3)c1C	inconclusive [activator, partial curve, poor fit]	–
Fc1ccc(-c2cc(-c3ccccc3)nc(-n3cccn3)n2)cc1	inconclusive [activator, partial curve, poor fit]	–
O[C@@H]1CN(Cc2cccs2)[C@@H](c2ccc(Cl)cc2)C[C@H]1n1cc(-c2ccc(F)cc2)nn1	–	inactive: 16.3%
COc1ccc(CN(C(=O)c2ccc(-c3ccccc3)[nH]2)C(C(=O)NCC2CCCO2)c2ccc(C)o2)cc1 (stereo not drawn)	–	inactive: 4.26%
COCCCNC(=S)N1CCN(c2nc(-c3ccc(F)cc3)cs2)CC1	inconclusive [activator, partial curve, poor fit]	–
COCCNC(=S)N/N=C/c1c2ccccc2cc2ccccc12	inconclusive [activator, single point]	–
COc1ccc2c(c1)CC/C2=N\OC(=O)c1ccccc1OC	–	inactive: -42.6%
Brc1ccc(Oc2nnnn2-c2ccccc2)cc1	–	inactive: -14.8%
Cc1ccc(NC(=S)NC(=O)C2CCCC2)c(Br)c1	inconclusive [activator, full curve, poor fit]	–
O=S(=O)(N/N=C\c1cccc(F)c1)c1ccccc1	inconclusive [activator, partial curve, poor fit]	–
CC(O)[C@@]1(O)CC[C@H]2[C@@H]3CC[C@H]4C[C@@H](O)CC[C@]4(C)C3=CC[C@@]21C (stereo partly drawn)	inconclusive [activator, partial curve, poor fit]	–
Nc1cc(S(=O)(=O)Nc2cc(Cl)ccc2Cl)ccc1N1CCCC1	inconclusive [activator, partial curve, poor fit]	–
COc1c(N2CCN(C(=S)NC3CC4CCC3C4)C(C)C2)c(F)cc2c(=O)c(C(=O)O)cn(C3CC3)c12 (stereo not drawn)	–	inactive: -7.93%
FC(F)(F)c1cnc(N2CCN(C(=S)NCc3ccccc3)CC2)c(Cl)c1	inconclusive [activator, single point]	–
CCOc1ccc(NC(=S)NCCCc2ccccc2)cc1	inconclusive [activator, single point]	–
CCOP(=O)(c1ccccc1)c1nc(-c2ccccc2Cl)oc1N1CCCCC1 (stereo not drawn)	–	inactive: -29.1%
